Laboratory results as given in PubChem BioAssay AID1745853 (National Center for Advancing Translational Sciences (NCATS), 2022).
The other results are listed elsewhere or left out. Shown are side measurements of this screen, not its main read-out; they come without a call.

How the values were obtained:
Experiment in all cases: Primary Screen for Target Class Profiling of Small Molecule Inhibitors of Methyltransferases
[1] = target: Glycine N-methyltransferase (Homo sapiens) (UniProt Q14749); details: purified enzyme, MTase-Glo SAH luminescence; measured here: GNMT inhibition; at 40 µM; stronger effect = lower value
In short: (§1)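 Each enzyme was assayed with SAM and its substrate. SAH formation detected by MTase-Glo luminescence; single-point 40 uM screen[…].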

[2] = target: Guanidinoacetate N-methyltransferase (Homo sapiens) (UniProt Q14353); details: purified enzyme, MTase-Glo SAH luminescence; measured here: GAMT inhibition; at 40 µM; stronger effect = lower value
In short: as §1

[3] = target: Histamine N-methyltransferase (Homo sapiens) (UniProt P50135); details: purified enzyme, MTase-Glo SAH luminescence; measured here: HNMT inhibition; at 40 µM; stronger effect = lower value
In short: as §1

[4] = target: Nicotinamide N-methyltransferase (Homo sapiens) (UniProt P40261); details: purified enzyme, MTase-Glo SAH luminescence; measured here: NNMT inhibition; at 40 µM; stronger effect = lower value
In short: as §1

[5] = target: Phenylethanolamine N-methyltransferase (Homo sapiens) (UniProt P11086); details: purified enzyme, MTase-Glo SAH luminescence; measured here: PNMT inhibition; at 40 µM; stronger effect = lower value
In short: as §1
% is scaled to controls: 0 for no effect and ±100 for the full control effect.

| Structure (SMILES) | activity change, negative = inhibition [1] [%] | activity change, negative = inhibition [2] [%] | activity change, negative = inhibition [3] [%] | activity change, negative = inhibition [4] [%] | activity change, negative = inhibition [5] [%] |
| --- | --- | --- | --- | --- | --- |
| O=C(CCc1nnc2n(Cc3ccccc3)c(=O)c3ccccc3n12)NC1CCN(Cc2ccccc2)CC1 | -5.72 | 2.93 | -19.1 | -4.98 | -2.02 |
| CCCCNC(=O)C(C)n1ccc2cc(S(=O)(=O)N3CCCC3)ccc21 (stereo not drawn) | -0.341 | 3.34 | -3.42 | 1.72 | -1.01 |
| CN1Cc2ncnc(N3CCC(c4ccccc4)CC3)c2CN(c2ccccc2)C1=O | -10 | -6.55 | -5.03 | -18.1 | -9.11 |
| C[S+](=O)([O-])N1CC2(CCCN2CC2CC2)Cc2ccccc21 (stereo not drawn) | -6.75 | -11.7 | -11.7 | -11.1 | -8.81 |
| CCC(=C(c1ccc(OCCN2CCCC2)cc1)c1ccc(OCCN2CCCC2)cc1)c1ccccc1 | -2.51 | -0.972 | -87.4 | -15.2 | -1.33 |
| C#CCN(C)Cc1nc(C2(O)CCN(C(=O)c3ccccc3F)CC2)cs1 | -2.34 | -0.955 | 1.37 | -4.62 | -3.09 |
| COCCOCc1nc(C2CCCCN2C(=O)c2ccncc2)no1 (stereo not drawn) | -2.46 | -2.64 | -0.378 | -7.02 | -3.1 |
| COc1cc(N2CCOCC2)ccc1Nc1ncc(Cl)c(Nc2ccccc2NS(C)(=O)=O)n1 | -43.6 | -0.133 | 4.26 | -16.3 | -23.7 |
| Fc1ccccc1CN1CCC[C@H]1c1nc(-c2ccnc(N3CCOCC3)c2)no1 | -1.99 | 0.641 | -1.02 | -1.72 | 0.864 |
| Clc1ccc(CNc2nc3c(-c4ccccc4)nnn3c3ccccc23)cc1 | 0.436 | 0 | 5.28 | 4.25 | -1.25 |
| O=c1c2cccnc2n(-c2cccc([N+](=O)[O-])c2)c(=O)n1Cc1ccncc1 | 2.51 | 7.54 | 12 | -11.4 | 5.92 |
| O=C1NCC2(CCCN(C(=O)c3cn[nH]c3-n3cnnn3)C2)O1 (stereo not drawn) | -3.99 | -6.98 | -2.62 | -9.51 | -6.37 |
| O=C(c1n[nH]c2ccccc12)N1CCCC1c1nc(CCOCC2CCOCC2)no1 (stereo not drawn) | -3.77 | -7.82 | -1.18 | -9.73 | -3.97 |
| CN(C)C(=O)Nc1cccc(-c2ccc(N(C)C)cc2)c1 | -2.32 | 1.49 | 3.99 | -13.5 | 1.63 |
| O=C1NCCOCCCN(C(=O)CC2CCCC2)[C@H]2CCC[C@@H]12 | -1.41 | 3.08 | 1.42 | -6.54 | -16.6 |
| CC(=O)Oc1ccc(C2Nc3ccc4ccccc4c3C3C=CCC32)c(OC(C)=O)c1 (stereo not drawn) | -11.1 | 0 | -13.2 | -19.1 | -17.4 |
| CCCCN1C(=O)c2ccc(-c3ccccc3)n2CC1(C)C(=O)NC1CCC(C)CC1 (stereo not drawn) | 7.04 | 1.7 | 5.53 | 4.06 | 4.61 |
| Cc1cc2[nH]c(=O)[nH]c2cc1S(=O)(=O)N1CCN(c2ccccc2F)CC1 | 15.7 | 2 | 11 | 2.46 | 6.08 |
| C=CC(C)(/C=C/c1ccc(O)cc1)CCC=C(C)C (stereo not drawn) |  | 3.21 |  | -14 | 2.94 |
| O=C1CCS(=O)(=O)N1c1ccc(S(=O)(=O)NCCN2CCOCC2)cc1 | 3.23 | -6.93 | 4.07 | 6.64 | -1.89 |
| CC(C)CC(=O)NC[C@@H]1C[C@H](F)CN1C(=O)CCCc1cccs1 | -2.71 | -8.88 | -2.29 | -15.3 | 10.1 |
| OC[C@H]1O[C@@H](Oc2cc(O)cc(-c3cc4ccc(O[C@@H]5O[C@H](CO)[C@@H](O)[C@H](O)[C@H]5O)cc4o3)c2)[C@H](O)[C@@H](O)[C@@H]1O | 1.18 | 7.55 | 10.9 | -4.27 | 8.18 |
| CCc1cc2c(cc3n2CC(C)(C(=O)NC2CCC(C)CC2)N(Cc2cccc(F)c2)C3=O)s1 (stereo not drawn) | 5.81 | 0 | 7.21 | 4.16 | -0.012 |
| CC1CCC2C(C(=O)O)=CC3C(O)C(C)(C)CC123 (stereo not drawn) | 2.9 | 5.48 | 8.87 | -7.64 | 0.018 |
| Cc1cccc(C)c1-c1nc(C(=O)N2CCN(c3ncccn3)CC2)n2ccccc12 | -5.15 | -3.23 | -9.78 | -26 | -0.816 |
| C/C=C/C=C/C(O)=C1/C(=O)[C@]2(C)C(=O)[C@@](C)(O)[C@H]1[C@H]([C@@]1(C)OC(=O)C(C)=C1O)[C@H]2C(=O)CC/C=C/C | -3.59 | 1.3 | 7.98 | -11.1 | -6.05 |
| NC(=O)NCC(=O)N1CC[C@@H]2[C@@H](CCC(=O)N2CCc2ccccn2)C1 | -1.45 | -0.562 | 1.14 | -0.474 | 1.33 |
| CCN1C(=O)c2cc(C(=O)Nc3cccc(Cl)c3C)nn2CC1(C)C(=O)NC1CCCC1 (stereo not drawn) | -3.98 | -3.43 | -12.3 | -1.03 | -5.45 |
| CN(C)[C@@H]1CN(C(=O)c2ccc(C#N)cc2)C[C@H]1CO | -4.88 | -1.96 | 0.087 | -1.14 | 0.327 |
| CC1COC2(OC3CC4C5CC(O[C@@H]6O[C@H](C)[C@@H](O[C@@H]7O[C@@H](C)[C@H](O)[C@@H](O)[C@H]7O)[C@H](O)[C@H]6O)C6CC(O)CCC6(C)C5CCC4(C)C3C2C)C(O)C1 (stereo partly drawn) | 2.99 | -0.391 | 6.45 | -10 | -3.53 |
